{"source": "the supplement of paper PMC4723716", "note": "± gives the uncertainty stated by the source. Over roughly 9,900 compounds, “viability index relative to DMSO control” has its median near 1; the lowest 2% begin near 0.85. The list shows a part of the results."}
{"tested_on": "Plasmodium falciparum NF54 stage V gametocytes", "assay": "viability index relative to DMSO control (fraction); higher = less gametocyte killing", "conditions": "2.5 µM, library set: Broad Institute DOS, incubation time: 72 h", "summary_of_the_method": "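Gametocytes (P. falciparum NF54, stage V) were treated with compound at 2.5 µM for 72 hr at 37°C in low oxygen, in serum-free medium at 0.75% gametocytemia and 1.25% hematocrit. Counts of 20–70 µm2 red particles, taken from one field per well after MitoTracker Red CMXRos with saponin, were divided by the plate mean of solvent-only wells. This ratio is the viability index.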"}
{"molecule": "CN1c2ccc(Br)cc2[C@@H]2[C@@H](CCN2C(=O)C2CCC2)[C@@H]1CO", "viability index": "1.124 ± 0.0024"}
{"molecule": "C[C@H](CO)N1C[C@H](C)[C@@H](CN(C)C(=O)NC2CCCC2)Oc2cc(-c3cncnc3)ccc2S1(=O)=O", "viability index": "0.995 ± 0.034"}
{"molecule": "C[C@@H]1CN([C@@H](C)CO)C(=O)c2cccc(NS(=O)(=O)c3ccc(F)cc3)c2O[C@H]1CN(C)Cc1ccc(Cl)c(Cl)c1", "viability index": "0.986 ± 0.044"}
{"molecule": "CCS(=O)(=O)Nc1ccc2c(c1)C(=O)N(C)[C@H]1CC[C@H](CC(=O)N[C@@H]3CCN(Cc4ccccc4)C3)O[C@H]1CO2", "viability index": "1.09 ± 0.072"}
{"molecule": "O=C(C1CC1)N1C[C@H]2[C@@H](c3ccccc31)[C@@H](CO)N2C(=O)c1ccccc1", "viability index": "0.985 ± 0.043"}
{"molecule": "COc1ccccc1NC(=O)N1CC(=O)N2[C@H](C1)[C@@H](c1ccc(C#CC(C)C)cc1)[C@@H]2CO", "viability index": "1.01 ± 0.047"}
{"molecule": "N#C[C@H]1N[C@H](CO)[C@@H]1c1ccc(C#CC2CCCCC2)cc1", "viability index": "1.13 ± 0.017"}
{"molecule": "N#C[C@H]1[C@@H](c2ccc(-c3cccnc3)cc2)[C@@H](CO)N1C(=O)Nc1ccc(F)cc1", "viability index": "1.06 ± 0.047"}
{"molecule": "O=C(c1ccccc1F)N1C[C@H]2[C@@H](c3ccccc31)[C@@H](CO)N2C(=O)Nc1ccccc1", "viability index": "0.955 ± 0.049"}
{"molecule": "COc1ccc2c3c([nH]c2c1)[C@@H](CO)N(C)C[C@]31CCN(CC1)C(=O)CN(C)C", "viability index": "0.951 ± 0.095"}
{"molecule": "CCCNC(=O)N1C[C@]2(CCN(Cc3nccs3)CC2)c2c([nH]c3cc(OC)ccc23)[C@H]1CO", "viability index": "0.946 ± 0.061"}
{"molecule": "COCC(=O)N1[C@@H](CO)[C@@H]2c3ccccc3N(C(=O)Nc3ccccc3Cl)C[C@@H]21", "viability index": "1.01 ± 0.042"}
{"molecule": "O=C(Cc1cccnc1)N1CC(=O)N2[C@H](C1)[C@@H](c1ccc(/C=C/c3ccccc3)cc1)[C@@H]2CO", "viability index": "1 ± 0.029"}
{"molecule": "C/C=C/c1ccc([C@@H]2[C@@H](CNC(=O)C3CCC3)N(C(=O)NCCC)[C@H]2CO)cc1", "viability index": "1.09 ± 0.035"}
{"molecule": "CC(C)[C@@H]1C(=O)N[C@@H](c2ccc(F)cc2)C/C=C/C[C@H](C)Oc2ccccc2C(=O)N1C.CC(C)[C@@H]1C(=O)N[C@@H](c2ccc(F)cc2)C/C=C\\C[C@H](C)Oc2ccccc2C(=O)N1C", "viability index": "1 ± 0.033"}
{"molecule": "Cc1ccc(S(=O)(=O)Nc2cccc3c2O[C@@H](CN(C)C(=O)Nc2ccc(C(F)(F)F)cc2)[C@H](C)CN([C@@H](C)CO)C3=O)cc1", "viability index": "1.06 ± 0.047"}
{"molecule": "C[C@@H]1CN([C@@H](C)CO)C(=O)Cc2cc(NC(=O)C3CC3)ccc2O[C@H]1CN(C)S(=O)(=O)c1cn(C)cn1", "viability index": "1.03 ± 0.0042"}
{"molecule": "CN(C)C(=O)c1cccc(-c2ccc([C@H]3[C@@H](CO)N4CCCCN(CC5CCOCC5)C[C@@H]34)cc2)c1", "viability index": "1.017 ± 0.0031"}
{"molecule": "C/C=C/c1ccc([C@H]2[C@@H](CO)N(C(C)=O)[C@H]2CN(C(C)=O)C2CCCC2)cc1", "viability index": "0.971 ± 0.07"}
{"molecule": "O=C(C[C@H]1C[C@@H]2c3cc(NC(=O)C4CCC4)ccc3O[C@@H]2[C@@H](CO)O1)NC1CCCC1", "viability index": "1.08 ± 0.031"}
{"molecule": "C[C@H](CO)N1C[C@H](C)[C@H](CN(C)CC2CC2)Oc2ccc(NC(=O)CCC(F)(F)F)cc2CC1=O", "viability index": "0.953 ± 0.022"}
{"molecule": "O=C(C[C@@H]1CC[C@@H]2[C@H](COC[C@H](O)CN2S(=O)(=O)c2ccccc2)O1)NCC1CCCCC1", "viability index": "1.088 ± 0.009"}
{"molecule": "CC(C)C[C@@H]1COCn2nncc2CCCC(=O)N1", "viability index": "1.02 ± 0.058"}
{"molecule": "COCC(=O)N1CC[C@H]2[C@@H]1c1cc(-c3cccc(F)c3)ccc1N(C)[C@H]2CO", "viability index": "1.08 ± 0.035"}
{"molecule": "CO[C@H](CN(C)C(=O)c1ccc2c(c1)OCO2)[C@H](C)CN([C@@H](C)CO)S(=O)(=O)c1ccc(Cl)cc1", "viability index": "1.03 ± 0.075"}
{"molecule": "C/C=C/c1ccc([C@H]2[C@@H](CO)N3CCCCN(CCC(F)(F)F)C[C@@H]23)cc1", "viability index": "1.03 ± 0.051"}
{"molecule": "C[C@@H]1CCCCO[C@H](CN(C)S(C)(=O)=O)[C@@H](C)CN([C@@H](C)CO)C(=O)c2cc(NC(=O)NC3CCCCC3)ccc2O1", "viability index": "1.09 ± 0.02"}
{"molecule": "COc1ccc(NC(=O)N(C)C[C@@H]2OCCCC[C@H](C)Oc3ccc(NC(=O)c4ccncc4)cc3C(=O)N([C@H](C)CO)C[C@@H]2C)cc1", "viability index": "1 ± 0.021"}
{"molecule": "CO[C@H]1CN(C)C(=O)c2cc(NC(=O)c3cnccn3)ccc2OC[C@H](C)NC[C@H]1C", "viability index": "1.09 ± 0.041"}
{"molecule": "C[C@@H]1CN([C@H](C)CO)C(=O)c2ccccc2-c2ccccc2CO[C@H]1CN(C)C(=O)[C@@H](Cc1ccccc1)N(C)C", "viability index": "1.03 ± 0.1"}
{"molecule": "C[C@H](CO)N1C[C@H](C)[C@@H](CN(C)C(=O)Nc2ccnc(N3CCOCC3)c2)OCc2ccccc2-c2ccccc2C1=O", "viability index": "1.02 ± 0.081"}
{"molecule": "CCNC(=O)C[C@H]1CC[C@H]2[C@@H](COC[C@@H](O)CN2C(=O)C2CCCC2)O1", "viability index": "1.02 ± 0.041"}
{"molecule": "N#C[C@@H]1[C@@H](c2ccccc2)[C@@H](CO)N1C(=O)c1ccccc1F", "viability index": "1.04 ± 0.067"}
{"molecule": "CO[C@H]1CN(C)C(=O)c2ccc(NC(=O)c3nc4ccccc4s3)cc2OC[C@@H](C)N(Cc2cccnc2)C[C@@H]1C", "viability index": "0.98184 ± 0.00094"}
{"molecule": "O=C(Nc1ccccc1F)N[C@@H]1CC[C@@H](CCNC(=O)C2CC2)O[C@H]1CO", "viability index": "1.13 ± 0.19"}
{"molecule": "C[C@H]1CCCCO[C@@H](CN(C)C(=O)C2CCCCC2)[C@@H](C)CN([C@@H](C)CO)C(=O)c2cc(NS(=O)(=O)c3ccccc3)ccc2O1", "viability index": "1.04 ± 0.088"}
{"molecule": "COc1ccc(-c2ccc([C@@H]3[C@H](CN(C)S(C)(=O)=O)N[C@@H]3CO)cc2)cc1", "viability index": "0.9719 ± 0.0018"}
{"molecule": "COc1ccc(NC(=O)N(C)C[C@@H]2Oc3ccc(NC(=O)CCN4CCOCC4)cc3C(=O)N([C@@H](C)CO)C[C@H]2C)cc1", "viability index": "1.07 ± 0.11"}
{"molecule": "CN(C)C(=O)c1ccc(-c2ccc([C@H]3[C@H]4CN(C(=O)CC5CC5)CC(=O)N4[C@H]3CO)cc2)cc1", "viability index": "1.04 ± 0.069"}
{"molecule": "O=C(C[C@@H]1C=C[C@@H](NC(=O)Nc2ccccc2F)[C@@H](CO)O1)NCc1ccc(-c2ccccc2)cc1", "viability index": "1.09 ± 0.03"}
{"molecule": "C[C@@H]1CN([C@@H](C)CO)C(=O)c2ccccc2-c2ccccc2CO[C@@H]1CN(C)C(=O)NC1CCCCC1", "viability index": "0.881 ± 0.013"}
{"molecule": "C[C@H](CO)N1C[C@H](C)[C@H](CN(C)C(=O)Nc2ccc3c(c2)OCO3)OCc2cn(nn2)CCCC1=O", "viability index": "1.028 ± 0.0083"}
{"molecule": "COc1ccccc1CNC(=O)C[C@@H]1CC[C@@H]2[C@H](COc3ccc(NC(C)=O)cc3C(=O)N2C)O1", "viability index": "1.1 ± 0.072"}
{"molecule": "Cc1noc(C)c1NC(=O)Nc1ccc2c(c1)C(=O)N(C)[C@@H]1CC[C@@H](CC(=O)N[C@H]3CCN(Cc4ccccc4)C3)O[C@H]1CO2", "viability index": "1.15 ± 0.023"}
{"molecule": "COc1ccccc1-c1ccc2c(c1)[C@@H]1[C@@H](CCN1C(=O)C1CCC1)[C@H](CO)N2", "viability index": "0.655 ± 0.025"}
{"molecule": "Cc1noc(C)c1S(=O)(=O)N(C)C[C@H]1OCCCC[C@H](C)Oc2ccc(N(C)C)cc2C(=O)N([C@H](C)CO)C[C@@H]1C", "viability index": "1.05 ± 0.072"}
{"molecule": "C/C=C/c1ccccc1[C@@H]1[C@@H](C#N)N(C(C)=O)[C@H]1CO", "viability index": "1.07 ± 0.15"}
{"molecule": "CCC(=O)N1CC[C@@H]2[C@H]1c1cc(-c3ccc(C#N)cc3)ccc1N(C)[C@H]2CO", "viability index": "1.1 ± 0.052"}
{"molecule": "CCCNC(=O)N1CC2(C1)[C@H](c1ccccc1)[C@@H](CO)N2CC1CCOCC1", "viability index": "0.995 ± 0.018"}
{"molecule": "COc1cccc(S(=O)(=O)N(C)C[C@H]2OCc3ccccc3-c3c(n(C)c4ccccc34)C(=O)N([C@@H](C)CO)C[C@H]2C)c1", "viability index": "0.833 ± 0.059"}
{"molecule": "O=C(C[C@H]1C[C@H]2c3cc(NC(=O)c4ccc5c(c4)OCO5)ccc3O[C@H]2[C@H](CO)O1)NCc1ccc(Oc2ccccc2)cc1", "viability index": "1.03 ± 0.11"}
{"molecule": "CCCC#Cc1ccc([C@@H]2[C@H](CO)N3C(=O)CN(S(=O)(=O)c4ccccc4C)C[C@@H]23)cc1", "viability index": "0.965 ± 0.13"}
{"molecule": "N#C[C@H]1[C@@H](c2ccccc2-c2ccccc2)[C@H](CO)N1C(=O)Cc1ccncc1", "viability index": "0.995 ± 0.044"}
{"molecule": "COc1cccc(-c2ccc3c(c2)[C@@H]2[C@@H](CCN2S(=O)(=O)c2ccccc2F)[C@@H](CO)N3)c1", "viability index": "0.964 ± 0.17"}
{"molecule": "O=C(C1CCC1)N1CC(=O)N2[C@H](CO)[C@H](c3ccc(Br)cc3)[C@@H]2C1", "viability index": "1.1 ± 0.057"}
{"molecule": "CC(C)NC(=O)N1CC2(C1)[C@H](c1ccccc1)[C@H](CO)N2C(=O)C1CCOCC1", "viability index": "1.12 ± 0.02"}
{"molecule": "CS(=O)(=O)N1CC(=O)N2[C@@H](CO)[C@H](c3ccc(Br)cc3)[C@@H]2C1", "viability index": "1.05 ± 0.057"}
{"molecule": "C/C=C/c1ccc([C@@H]2[C@H](CO)N[C@H]2CN(CC)C(=O)CN2CCOCC2)cc1", "viability index": "0.993 ± 0.061"}
{"molecule": "COc1ccc2c3c([C@H](CO)N(C[C@]33CN(C3)C(=O)Nc3ccc(F)cc3)C(=O)c3ccc(F)cc3)n(C)c2c1", "viability index": "0.923 ± 0.079"}
{"molecule": "C[C@H](CO)N1C[C@H](C)[C@@H](CN(C)C(=O)Nc2ccc(C(F)(F)F)cc2)Oc2ccc(NS(=O)(=O)c3ccc(Cl)cc3)cc2CC1=O", "viability index": "0.917 ± 0.088"}
{"molecule": "CCS(=O)(=O)N1C[C@@]2(C1)CN([C@@H](CO)c1[nH]c3cc(OC)ccc3c21)S(=O)(=O)c1cn(C)cn1", "viability index": "0.917 ± 0.098"}
{"molecule": "COc1ccccc1-c1ccccc1[C@H]1[C@@H](C#N)N(C(=O)C2CCOCC2)[C@@H]1CO", "viability index": "1 ± 0.12"}
{"molecule": "CCS(=O)(=O)N1[C@H](CO)[C@@H](c2ccc(C#Cc3ccccc3F)cc2)[C@@H]1C#N", "viability index": "1.09 ± 0.081"}
{"molecule": "C[C@@H]1CN([C@@H](C)CO)C(=O)c2cc(C3=CCCC3)cnc2O[C@@H]1CN(C)C(=O)Nc1ccc(C(F)(F)F)cc1", "viability index": "1.072 ± 0.0069"}
{"molecule": "CCCN1[C@H](CO)[C@H](c2ccc(C3=CCCC3)cc2)[C@H]1CNC(=O)NC(C)C", "viability index": "1.12 ± 0.033"}
{"molecule": "COc1ccc([C@@H]2C/C=C/C[C@H](C)Oc3ccccc3C(=O)N(C)[C@@H](Cc3ccccc3)C(=O)N2)c(OC)c1.COc1ccc([C@@H]2C/C=C\\C[C@H](C)Oc3ccccc3C(=O)N(C)[C@@H](Cc3ccccc3)C(=O)N2)c(OC)c1", "viability index": "0.989 ± 0.071"}
{"molecule": "O=C(C[C@@H]1C=C[C@H](NC(=O)Nc2cccc(F)c2)[C@@H](CO)O1)NCC1CCCCC1", "viability index": "0.994 ± 0.033"}
{"molecule": "O=C(C[C@H]1CC[C@H]2[C@@H](COC[C@H](O)CN2Cc2ccc(F)cc2)O1)NCCc1ccccc1", "viability index": "0.995 ± 0.027"}
{"molecule": "COc1ccc([C@H]2C/C=C\\C[C@H](c3ccc4c(c3)OCO4)NC(=O)[C@H](c3ccccc3)CC(=O)N2)c(OC)c1", "viability index": "1.037 ± 0.003"}
